Measured values reported in PubChem BioAssay AID1159614 (National Center for Advancing Translational Sciences (NCATS), 2016).
In all, about 45,000 compounds went through this assay and about 65 (0.1%) were called active. The call rests on the fitted dose curve; in most records, active means well fitted activation curve with a large enough effect; inconclusive means small, poorly fitted or top-dose-only effect; inactive means no such curve, though single readings can be large or run the other way. The list shows a part of the results.

target: Galactocerebrosidase (Homo sapiens) (UniProt P54803); test: A Novel Cell-Based Assay to Identify Small Molecules for B -Galactocerebrosidase; conditions: 145M-Twi-hGALC-G270D cells (Twitcher mouse brain line with human GALC G270D), HMU-beta-Gal fluorescence, 48 h; series mostly up to 57.5 µM; activation: at the top concentration; further: 0% is about no effect; nearly all actives have a fitted effect of over 65% in size
Summary of the method: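 Mutant human GALC (G270D), stably expressed in a Twitcher mouse brain cell line lacking endogenous GALC, is measured in live-treated cells via 6-hexadecanoylamino-4-methylumbelliferyl-β-galactoside hydrolysis (0.1 mM final, pH 5.2) with fluorescent detection.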

UniProt P54803, sequence (P54803 whole entry, looked up): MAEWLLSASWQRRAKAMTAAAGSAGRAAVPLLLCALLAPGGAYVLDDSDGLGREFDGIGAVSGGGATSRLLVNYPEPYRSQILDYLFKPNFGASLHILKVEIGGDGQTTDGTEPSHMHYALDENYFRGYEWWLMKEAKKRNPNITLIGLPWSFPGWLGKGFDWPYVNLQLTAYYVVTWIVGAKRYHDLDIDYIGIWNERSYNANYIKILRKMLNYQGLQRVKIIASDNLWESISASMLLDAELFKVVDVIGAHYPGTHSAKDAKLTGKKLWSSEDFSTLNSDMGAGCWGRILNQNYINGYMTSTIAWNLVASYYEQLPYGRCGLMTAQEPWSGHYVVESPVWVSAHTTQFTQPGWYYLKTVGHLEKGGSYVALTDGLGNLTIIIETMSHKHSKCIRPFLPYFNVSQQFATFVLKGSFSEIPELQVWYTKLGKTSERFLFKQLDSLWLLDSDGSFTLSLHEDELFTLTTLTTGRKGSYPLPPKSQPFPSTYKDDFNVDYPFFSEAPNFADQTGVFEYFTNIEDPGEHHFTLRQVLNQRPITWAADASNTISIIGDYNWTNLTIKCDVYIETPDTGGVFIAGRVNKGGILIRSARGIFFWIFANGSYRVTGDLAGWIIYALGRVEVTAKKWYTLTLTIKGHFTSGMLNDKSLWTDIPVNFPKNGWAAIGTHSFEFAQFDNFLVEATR

activation, inactive:
COCCn1c(C)cc(O)c(C(c2ccc(F)cc2)N2CCC(C)CC2)c1=O (stereo not drawn) -19.8%, CCOc1ccccc1NC(=O)Cn1c(=O)n(C(C)C)c(=O)c2oc3ccccc3c21 -17.4%, Cc1cccc(CSc2ncccc2C(=O)O)c1 17%, O=S(=O)(c1ccc(-c2cnc(C3CC3)o2)cc1)N1CCN(c2ccccc2)CC1 -6.29%, CC1=C(C(=O)OC2CCCC2)C(c2ccccc2C(F)(F)F)CC(=O)N1 (stereo not drawn) -5.36%, COc1cccc(NC(=O)Cn2c(=O)n(-c3ccccc3)c(=O)c3c2c2cc(OC)ccc2n3C)c1 -17.6%, Cc1ccc(N(CC(=O)Nc2ccc(C)c(Cl)c2)S(=O)(=O)c2cccs2)cc1 -11.9%, COc1ccccc1CNC(=O)c1nnn(CC(=O)Nc2c(C)cccc2C)c1N 0.598%, Cn1c(C(=O)Nc2ccc(OC(F)(F)F)cc2)cc2c(=O)n3ccccc3nc21 3.85%, Cc1ccccc1OCC(=O)OCc1cc(=O)n2nc(-c3cccs3)sc2n1 -0.541%, CC(=O)c1ccc(N2CCN(c3ncnc4c3cnn4-c3cc(Cl)ccc3C)CC2)cc1 -41.2%, Cc1ccc(CNC(=O)CN2N=C(c3ccccc3)CCC2=O)cc1 -17.5%, CCOc1ccccc1NC(=O)c1c(NC(=O)Cc2ccc(OC)cc2)sc2c1CCC2 -14.1%, CCc1cccc(NC(=O)c2ccc3c(c2)c(C)c(C)n3Cc2ccc(F)cc2)c1 -18.9%, Cc1ccc(OCC(=O)Nc2cccc(C(=O)OCc3cc(=O)n4c(C)csc4n3)c2)cc1 -4.35%, Cc1ccc(CN2COc3c(Cl)cc4c(-c5ccccc5)cc(=O)oc4c3C2)cc1 -20.8%, Cc1ccc(NC(=O)COc2ccc3oc4c(c3c2)CCCC4)cc1C -17%, O=C(c1ccc2c(c1)N(Cc1ccc(Cl)cc1)C(=O)c1ccccc1S2(=O)=O)N1CCN(c2ccccn2)CC1 -9.99%, COc1cc(-c2nc3ccc(Cl)cn3c2Nc2ccc3c(c2)OCCO3)ccc1O -20.8%, Cc1cccc(CSc2nnc3[nH]c(=O)cc(-c4ccccc4)n23)c1 -7.62%, CCOc1ccc(NC(=O)N2CCC(N3CCCCC3)CC2)cc1 -14.1%, O=C(Nc1cc(Cl)cc(Cl)c1)c1ccc(F)c(S(=O)(=O)N2CCN(c3ccccc3F)CC2)c1 -14.4%, Cc1cc(NC(=O)C2CCCN(S(=O)(=O)c3cccc4nsnc34)C2)ccc1Br (stereo not drawn) -16.6%, CCCOc1ccc(CNC(=O)CN2C(=O)c3cccnc3Oc3ccc(C)cc32)cc1 2.03%, O=C(NCCCO)c1nn(-c2ccc(Cl)cc2)nc1CO -10.5%, COC(=O)C1CCN(c2csc3ccc(Cl)cc3c2=O)CC1 -9.95%, O=C(CN1C(=O)COc2ccc(S(=O)(=O)N3CCOCC3)cc21)N1CCN(c2ccccc2F)CC1 7.28%, Cc1ccc(NC(=O)C(=O)NCC2(c3ccccc3)CCCC2)cc1C -11.7%, CCc1cccc(NC(=O)c2c(C)oc3nc(C)nc(N4CCCC4)c23)c1 8.3%, COc1ccc(C(=O)N(Cc2cc(OC)c(OC)c(OC)c2)C2CCS(=O)(=O)C2)cc1Cl (stereo not drawn) -6.01%, CCc1ccc(NCc2cc3ccc(OC)cc3n(CC(=O)Nc3ccc(C)c(Cl)c3)c2=O)cc1 3.74%, COc1cc(OC)c(OC)cc1CNCCCSc1nnnn1C -6.2%, CCc1ccc(OCc2cc(=O)n3cc(C)sc3n2)cc1 -14%, CCOc1ccc2oc(=O)cc(CN3CCN(c4ccccc4OC)CC3)c2c1 -11.4%, COc1cccc(NC(=O)Cn2c(=O)n(CCc3ccc(OC)c(OC)c3)c(=O)c3ccccc32)c1 2.19%, CCOc1ccc(-c2nc(SCC(=O)Nc3cc(F)ccc3F)n3[nH]c(=O)cc3n2)cc1 -15.1%, COc1ccc(-c2ccc(=O)n(CC(=O)Nc3ccc(OC)c(OC)c3)n2)cc1 -7.44%, Cc1ccc(C(=O)c2oc3ccccc3c2NC(=O)Cc2ccccc2)cc1 7.39%, CCCCn1c(=N)n(CCOc2ccccc2OC)c2ccccc21 -16.2%, CCC(=O)N1CCc2cc(OC)c(OC)cc2C1COc1ccc2c(C)cc(=O)oc2c1 (stereo not drawn) -11%, COc1ccc(C2c3c(n(C)c4ccccc34)C(=O)N2CC(=O)Nc2ccc(F)cc2)cc1 (stereo not drawn) -16.8%, COCCNC(=O)C1=CC(c2ccc3c(c2)OCO3)=NS(=O)(=O)N1C -13.4%, CC(C)c1ccc(CNc2n[nH]c(-c3ccco3)n2)cc1 -32.8%, Cn1cc(S(=O)(=O)N2CCOCC2)cc1C(=O)Nc1cccc(C#N)c1 5.1%, CC(C)Oc1ccc(CNC(=O)Cn2nc(N3CCN(c4ccccc4)CC3)ccc2=O)cc1 -7.3%, Cc1ccc(CSc2nc(-c3ccccc3C)nc3c2Cc2c(CO)cnc(C)c2O3)cc1 -2.98%, O=c1[nH]c2ccccc2n1CCCN1CCN(C(c2ccccc2)c2ccccc2)CC1 -10.5%, Cn1c(=O)c2c(SCC(=O)N3CCc4ccccc43)nc(-c3ccc(Cl)cc3)nc2n(C)c1=O -13%, O=C1N(Cc2ccccc2)c2ccccc2C1(O)c1c[nH]c2ccccc12 (stereo not drawn) -8.89%, Cc1ccc(NC(=O)C2CCCN2S(=O)(=O)c2ccc3c(c2)n(C)c(=O)c(=O)n3C)cc1C (stereo not drawn) -3.92%, Cn1ncc2c(NCc3ccc(F)cc3)ncnc21 -10.5%, CCOC(=O)c1c(S(=O)(=O)N2CCC(C(=O)N3CCN(c4ccc(F)cc4)CC3)CC2)c(C)n(C)c1C -9.1%, CCn1nnc2cc(C(=O)Nc3ccc(Br)cc3F)ccc21 -12.4%, CN(C)S(=O)(=O)c1ccc2c(c1)N(CC(=O)NCc1ccccc1)C(=O)C1CCCCN21 (stereo not drawn) 2.01%, Cc1ccccc1CCNC(=O)c1ccc2c(c1)c(C)c(C)n2C -6.11%, O=C(O)Cc1ccc(CCNS(=O)(=O)c2ccc(Cl)cc2)cc1 -7.73%, CCCCCn1c(=O)[nH]c2cc(C(=O)Nc3cc(OC)cc(OC)c3)ccc2c1=O -16.8%, Cn1nnnc1SCCCNCc1ccc(-c2ccc(Br)cc2)o1 -13.7%, Cc1cccc(CNC(=O)C2CCCN(S(=O)(=O)c3cn(C)cn3)C2)c1 (stereo not drawn) -12.7%, COc1ccccc1CNC(=O)CCn1c(=O)c2ccccc2n(CC(=O)Nc2ccc(C)cc2)c1=O 6.26%, Cc1ccc2oc(=O)c3cc(C(=O)N4CCN(c5ccccc5)CC4)sc3c2c1 3.57%, Cc1ccc(NC(=O)CSc2nc3ccccc3nc2Cc2ccccc2F)cc1F 7.73%, Cc1nn(S(=O)(=O)c2ccc(C(C)C)cc2)c(C)c1S(=O)(=O)N1CCCCCC1 -4.72%
